Data taken from the supplement of paper PMC9262897, “Low-cost anti-mycobacterial drug discovery using engineered E. coli” (Nature Communications, 2022).
Further values from the same series stand in other lists.

Tested on: E. coli TESEC Mtb Alr
Experiment: growth (OD600 after 10 h, mean); higher = more growth
Protocol: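 TESEC Mtb Alr E. coli grown in a two-dimensional dilution series of drug (µM) and arabinose (12 to 1e8 nM). Growth is read as OD600 after 10 h; values are means of 3 biological replicates.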

N[C@@H]1CONC1=O [D-cycloserine]
growth
Settings | drug 125 µM | drug 250 µM | drug 500 µM | drug 1000 µM
arabinose 12 nM | 0.0481 | 0.048 | 0.0547 | 0.0492
arabinose 24 nM | 0.0498 | 0.0483 | 0.0552 | 0.0498
arabinose 48 nM | 0.0501 | 0.0489 | 0.0483 | 0.0485
arabinose 95 nM | 0.049 | 0.0486 | 0.0499 | 0.0486
arabinose 191 nM | 0.0483 | 0.049 | 0.0489 | 0.0478
arabinose 381 nM | 0.0506 | 0.0478 | 0.0488 | 0.0496
arabinose 763 nM | 0.048 | 0.0485 | 0.0482 | 0.0488
arabinose 1526 nM | – | 0.0481 | 0.049 | 0.0489
arabinose 3052 nM | – | 0.0483 | 0.0478 | 0.0531
arabinose 6104 nM | – | 0.0487 | 0.0487 | 0.0485
arabinose 12207 nM | – | 0.0477 | 0.0471 | 0.0479
arabinose 24414 nM | 0.313 | 0.0498 | 0.0486 | 0.0501
arabinose 48828 nM | 0.307 | 0.068 | 0.0542 | 0.054
arabinose 97656 nM | 0.319 | 0.0894 | 0.0525 | 0.0532
arabinose 195312 nM | 0.33 | 0.125 | 0.0549 | 0.053
arabinose 390625 nM | 0.336 | 0.163 | 0.061 | 0.0573
arabinose 781250 nM | 0.319 | 0.194 | 0.0708 | 0.0575
arabinose 1562500 nM | 0.294 | 0.207 | 0.0841 | 0.0595
arabinose 3125000 nM | 0.273 | 0.202 | 0.0989 | 0.0624
arabinose 6250000 nM | 0.254 | 0.207 | 0.122 | 0.0658
arabinose 12500000 nM | 0.248 | 0.212 | 0.144 | 0.0704
arabinose 25000000 nM | 0.234 | 0.221 | 0.166 | 0.0771
arabinose 50000000 nM | 0.205 | 0.207 | 0.182 | 0.0986
arabinose 100000000 nM | 0.158 | 0.169 | 0.157 | 0.125

CC(C)c1ccc2oc3nc(N)c(C(=O)O)cc3c(=O)c2c1 [Amlexanox]
growth
Settings | drug 250 µM | drug 500 µM | drug 1000 µM | drug 2000 µM
arabinose 12 nM | 0.269 | 0.193 | 0.113 | 0.0856
arabinose 24 nM | 0.271 | 0.189 | 0.118 | 0.0846
arabinose 48 nM | 0.261 | 0.194 | 0.118 | 0.081
arabinose 95 nM | 0.263 | 0.199 | 0.12 | 0.0809
arabinose 191 nM | 0.259 | 0.195 | 0.116 | 0.083
arabinose 381 nM | 0.265 | 0.192 | 0.116 | 0.0831
arabinose 763 nM | 0.259 | 0.199 | 0.119 | 0.0831
arabinose 1526 nM | – | 0.189 | 0.117 | 0.0832
arabinose 3052 nM | – | 0.193 | 0.118 | 0.0845
arabinose 6104 nM | – | 0.197 | 0.119 | 0.0819
arabinose 12207 nM | – | 0.187 | 0.12 | 0.0829
arabinose 24414 nM | 0.272 | 0.188 | 0.125 | 0.0827
arabinose 48828 nM | 0.265 | 0.188 | 0.135 | 0.0828
arabinose 97656 nM | 0.249 | 0.178 | 0.137 | 0.0839
arabinose 195312 nM | 0.242 | 0.173 | 0.127 | 0.0848
arabinose 390625 nM | 0.233 | 0.164 | 0.129 | 0.0902
arabinose 781250 nM | 0.221 | 0.165 | 0.129 | 0.0902
arabinose 1562500 nM | 0.218 | 0.16 | 0.132 | 0.0844
arabinose 3125000 nM | 0.209 | 0.161 | 0.129 | 0.0872
arabinose 6250000 nM | 0.212 | 0.152 | 0.127 | 0.0928
arabinose 12500000 nM | 0.197 | 0.151 | 0.125 | 0.0954
arabinose 25000000 nM | 0.19 | 0.146 | 0.122 | 0.0879
arabinose 50000000 nM | 0.177 | 0.136 | 0.117 | 0.0953
arabinose 100000000 nM | 0.128 | 0.112 | 0.0975 | 0.0947

CCOC(=O)[C@H](CCc1ccccc1)N[C@H]1CCc2ccccc2N(CC(=O)O)C1=O [Benazepril]
growth
Settings | drug 250 µM | drug 500 µM | drug 1000 µM | drug 2000 µM
arabinose 12 nM | 0.198 | 0.118 | 0.112 | 0.111
arabinose 24 nM | 0.19 | 0.111 | 0.111 | 0.108
arabinose 48 nM | 0.189 | 0.111 | 0.111 | 0.111
arabinose 95 nM | 0.187 | 0.114 | 0.11 | 0.11
arabinose 191 nM | 0.186 | 0.11 | 0.11 | 0.114
arabinose 381 nM | 0.188 | 0.103 | 0.112 | 0.109
arabinose 763 nM | 0.185 | 0.102 | 0.106 | 0.115
arabinose 1526 nM | – | 0.102 | 0.104 | 0.108
arabinose 3052 nM | – | 0.0997 | 0.105 | 0.105
arabinose 6104 nM | – | 0.101 | 0.102 | 0.106
arabinose 12207 nM | – | 0.102 | 0.103 | 0.109
arabinose 24414 nM | 0.19 | 0.106 | 0.0989 | 0.104
arabinose 48828 nM | 0.214 | 0.108 | 0.102 | 0.107
arabinose 97656 nM | 0.234 | 0.123 | 0.113 | 0.115
arabinose 195312 nM | 0.242 | 0.17 | 0.13 | 0.13
arabinose 390625 nM | 0.234 | 0.189 | 0.164 | 0.156
arabinose 781250 nM | 0.238 | 0.207 | 0.196 | 0.195
arabinose 1562500 nM | 0.245 | 0.237 | 0.223 | 0.219
arabinose 3125000 nM | 0.254 | 0.246 | 0.248 | 0.24
arabinose 6250000 nM | 0.267 | 0.262 | 0.256 | 0.26
arabinose 12500000 nM | 0.254 | 0.252 | 0.252 | 0.258
arabinose 25000000 nM | 0.241 | 0.236 | 0.242 | 0.255
arabinose 50000000 nM | 0.236 | 0.235 | 0.234 | 0.243
arabinose 100000000 nM | 0.234 | 0.226 | 0.227 | 0.238
